# Results from publication PMC4242493.
# The list shows a part of the results. The list includes weakly bound sequences.
# Target: MaxL homodimer (UniProt P61244)
# Experiment: universal protein-binding microarray (PBM)
# Conditions: PBS-based mixture, 10 nM His-tagged protein dimer, 2% milk, 200 ng/uL BSA, 50 ng/uL salmon testes DNA, 0.02% TX-100; detection with Alexa 488 anti-His …; high values mean tight binding; most listed sequences are background and not binding sites; double strand, one strand shown
# UniProt P61244, sequence (P61244 whole entry): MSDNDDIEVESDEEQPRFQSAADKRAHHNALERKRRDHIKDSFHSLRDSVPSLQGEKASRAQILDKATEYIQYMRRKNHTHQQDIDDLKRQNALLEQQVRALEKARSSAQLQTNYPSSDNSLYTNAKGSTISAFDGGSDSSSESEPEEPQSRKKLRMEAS
row,Sequence,binding signal (normalized occupancy)
1,GTTAGATA,0.0808
2,AATCTTCT,0.0733
3,GTCAGTGA,0.0739
4,GAGTAACC,0.0745
5,GGTAACAC,0.0726
6,CTTTGGTC,0.0713
7,CCGCCACA,0.0785
8,CCCCCAAA,0.072
9,AAGCAACC,0.0724
10,GAGTGCTA,0.0794
11,TCCTTTCA,0.076
12,CCAATGTA,0.0844
13,CGTTCCAC,0.0724
14,GAGAGCGC,0.0702
15,CGGAATGC,0.0732
16,GCGACGCC,0.0709
17,GAACGCAA,0.0728
18,ACTGTCAG,0.0748
19,AATCGCAT,0.0786
20,AACCTCCT,0.0812
21,AATGACGA,0.0747
22,CGGGGTAA,0.0797
23,TAAGATAA,0.0765
24,AGAGGAAT,0.074
25,CTAAGCTC,0.0711

row,Sequence,binding signal (normalized occupancy)
1,CGCTAATA,0.0765
2,GCGAACTA,0.0739
3,CTGCGCGA,0.0685
4,GTGGGCCA,0.0752
5,GAGCCACC,0.0778
6,CCAACATA,0.0775
7,AGGGAAGA,0.0706
8,GAGTAAGA,0.0744
9,GTTGCAGA,0.0724
10,CGTTGTGC,0.0779
11,CCCTGGGC,0.0692
12,CCAATACA,0.0809
13,AGGTATCG,0.0777
14,GTCAACCA,0.0779
15,AATGGCCT,0.0699
16,AGAGACTA,0.0745
17,CGCACGCG,0.121
18,AGACTCTG,0.0648
19,CACCACAA,0.0795
20,AATAAGTG,0.0764
21,GCCTCGGA,0.0704
22,CCTAATGC,0.0805
23,ACTCGATA,0.0762
24,AATTGCTA,0.0737
25,CTTCTCGC,0.0731

row,Sequence,binding signal (normalized occupancy)
1,GACTCGAA,0.0679
2,AAGTAACT,0.0683
3,GGTATAAA,0.0837
4,AAGTCTCT,0.0732
5,AAGGTAAT,0.0741
6,CAGCCGGG,0.0671
7,CTCTTGCA,0.0725
8,AGTTGGCA,0.0767
9,TCCTCTCA,0.0711
10,ATTTTCTA,0.0856
11,AGGGAAGG,0.0787
12,ACATATTC,0.0874
13,GAAGAGGA,0.0698
14,AGCGAGTA,0.0732
15,CAGAGAGC,0.0689
16,AGCTCACC,0.0704
17,AAACTTCT,0.0684
18,AGGGATGC,0.0814
19,AGTCTGCG,0.0711
20,CCATTGCG,0.0729
21,AAAGAGAC,0.0712
22,ATGGTGCG,0.0824
23,ACGGAGTA,0.0708
24,CTAATCTC,0.0732
25,TCGCCGAA,0.0729

row,Sequence,binding signal (normalized occupancy)
1,ATACTAAG,0.0715
2,ACCTTAAT,0.0764
3,CACGCTGA,0.115
4,AACGGATT,0.0695
5,AAGCTGGC,0.0661
6,GTCGTCAA,0.0747
7,CCGGGTAA,0.0757
8,AACATCTA,0.0821
9,AGAACAAT,0.0787
10,CAAGCTTG,0.0708
11,CCCAGTAC,0.0737
12,ACACACCC,0.083
13,AGAAAATG,0.0762
14,ACCTGGTA,0.0753
15,GGCGCTAC,0.0692
16,GTTCCGTA,0.0742
17,GGATGCCA,0.0814
18,CTCCCCCC,0.0761
19,GGCAGTCA,0.0686
20,TGAACCAA,0.0739
21,CTAATTTA,0.0726
22,ACACCTCG,0.0873
23,ATCCGCGA,0.0775
24,AAGGTAGC,0.0707
25,AGCTTACC,0.071

row,Sequence,binding signal (normalized occupancy)
1,GGCCACCA,0.0737
2,CTATACAC,0.0863
3,CGGTAGAC,0.0717
4,AATCTCGG,0.0691
5,GGCTGAAA,0.0709
6,CGGAAAAC,0.0727
7,AAAAGCCC,0.0715
8,GATAGGAA,0.0756
9,ATGCATTG,0.0823
10,AATTGCAA,0.0749
11,TCGACGAA,0.0694
12,ATTACAAA,0.0745
13,CAATCCTA,0.0718
14,ACCTGCAC,0.0789
15,CGTCCCGA,0.0685
16,CTCGCAAC,0.0718
17,CAATATGG,0.0892
18,GACCAAGA,0.0725
19,CATCTGGA,0.0746
20,ATTACTGA,0.075
21,GTTCCAAA,0.0745
22,CACCCCCA,0.0838
23,CGAGCGGC,0.0633
24,CGGACGAA,0.0664
25,GCATTGAA,0.0779

row,Sequence,binding signal (normalized occupancy)
1,CCGCTCCC,0.068
2,AAATATAA,0.0776
3,AAGAACGC,0.0719
4,AAAGGAGT,0.0709
5,CGTGGGAC,0.096
6,GCGAAAGA,0.0745
7,GTAAATCA,0.0784
8,CTGGTATC,0.0757
9,CAGCTATG,0.0733
10,CGATCCCG,0.0749
11,GTTCCGAA,0.0707
12,CGAAAGGA,0.0662
13,ATGGACGG,0.0788
14,AATGCTGT,0.078
15,CAACCCAA,0.0765
16,GCTCCAAA,0.071
17,AAGCATGA,0.101
18,CAAGTTCC,0.072
19,TATGGCGA,0.079
20,GTACGTGA,0.078
21,AGATAATG,0.0779
22,ATAATTCC,0.0859
23,CAGTAGGG,0.0763
24,GCATTCAC,0.0843
25,CTTGCTCA,0.0741

row,Sequence,binding signal (normalized occupancy)
1,GAGAGCTA,0.0719
2,AATTATTA,0.0745
3,CCAAGCGG,0.0669
4,GAGCGAAC,0.0704
5,GACACCGC,0.071
6,GGAAGCTA,0.0684
7,GATCGAGA,0.0708
8,ACGCTAGT,0.074
9,ACACCGTA,0.0798
10,TAAGAAAA,0.0724
11,CCCAAAGA,0.073
12,GAACCCGC,0.0714
13,CAATTCCA,0.0713
14,CAGCCACC,0.0779
15,ATATGGGC,0.0924
16,ACGAAGAA,0.0769
17,AGTAGCGG,0.0668
18,CGGACACA,0.0777
19,GAGATAGA,0.0718
20,ATTCGCCC,0.0759
21,CGGGGACG,0.0709
22,CCTAAGAC,0.0761
23,AATTGGAC,0.073
24,GCGGTATA,0.0862
25,ACCGAGAC,0.0804

row,Sequence,binding signal (normalized occupancy)
1,GTTCTGTA,0.0739
2,AAGGAGAG,0.0749
3,CAGGGCAC,0.0729
4,ATCATACC,0.0872
5,AGGCCGTA,0.0865
6,TAGCCTGA,0.0762
7,GAAAATTA,0.0753
8,ACATCGTA,0.0832
9,AAAACGAC,0.0704
10,GTGCGTTA,0.0802
11,AAAGTAAT,0.0755
12,GAACAAAA,0.0774
13,ATAATTAT,0.0751
14,CGATAGCA,0.0761
15,ATTGTACG,0.0803
16,GGGAATAA,0.0761
17,AAACAGTG,0.0728
18,AGACTCAG,0.0677
19,AACAGATG,0.0811
20,CGGGTGAA,0.0737
21,ATCAGTGA,0.074
22,CAGCCGCC,0.0661
23,CACCTCCC,0.0785
24,AAAATCGA,0.0701
25,AGCTTGGC,0.0728

row,Sequence,binding signal (normalized occupancy)
1,CGACGATA,0.0742
2,AGCCCCTG,0.0742
3,TAGACGGA,0.0767
4,AGGAGAAT,0.0739
5,CTGGGCGC,0.071
6,AAAGCAGG,0.0748
7,GATTCTCA,0.0699
8,AGGCAGTC,0.0707
9,GATATGAA,0.0765
10,TCTCGAAA,0.0729
11,CCACCGAC,0.0705
12,TGAAAACA,0.0774
13,CAACCCGC,0.0702
14,AGGAGCTC,0.0691
15,CTGACCTA,0.0721
16,GGTCGACA,0.073
17,CCCAACAC,0.0863
18,GAAAAGTC,0.071
19,CCACCTCC,0.0797
20,CGATCACC,0.0764
21,AGTATACT,0.0754
22,CCTTGGAA,0.0704
23,CTATGGAG,0.0785
24,ATCGCAAC,0.0716
25,GATCCGCA,0.0769

row,Sequence,binding signal (normalized occupancy)
1,GATCAGGA,0.0748
2,AACAAACC,0.074
3,ATGCTCGG,0.0776
4,CGGGCATC,0.0714
5,CGAGCTCC,0.0701
6,CTTAAAAA,0.0679
7,TGGCGACA,0.075
8,ACCAACCC,0.0787
9,CAAGGCTG,0.0705
10,CGGAACAA,0.0732
11,GCTGGGAC,0.0747
12,CTTTGGGA,0.0699
13,AAACGAAG,0.0718
14,CATGGTTC,0.0877
15,GCCATCGA,0.0704
16,TCCGTGCA,0.0771
17,AGAATATA,0.0823
18,GCCAGGAA,0.0761
19,AACTTGCA,0.0757
20,AAAGACAT,0.0759
21,GCACTTAA,0.0742
22,ACCCCCGT,0.0814
23,AACTCACC,0.0734
24,ATTGGTGA,0.079
25,ATAATCCA,0.0803

row,Sequence,binding signal (normalized occupancy)
1,GGCGGAGA,0.0677
2,CGTTGCAG,0.0763
3,ACGCCTAC,0.075
4,TCCACACA,0.0814
5,AGGCCTGC,0.0726
6,ATACGCAG,0.0734
7,CGAATGGC,0.0741
8,ACTGGCGG,0.0693
9,ACTCTATC,0.0791
10,AGCCATCA,0.0792
11,AGGTCTTC,0.0711
12,CGTTTGAG,0.0708
13,CATGTATC,0.0975
14,ACGAGTTG,0.0803
15,CCCTAAGC,0.0711
16,GCACATTA,0.0869
17,CGCGTTAG,0.0774
18,GTAGTCAA,0.0703
19,AGAGTGTG,0.08
20,AACCGTCC,0.0687
21,AAGTGTTC,0.0784
22,ATATAGAT,0.0911
23,CATAGTGA,0.0778
24,ACTTACTG,0.0751
25,CCCCCCTA,0.0821

row,Sequence,binding signal (normalized occupancy)
1,CAGCATGC,0.126
2,GCGACATA,0.0788
3,GCAGAGCA,0.0719
4,GGAGCAAC,0.0682
5,CATTCAGC,0.0725
6,ATGCGGCA,0.0878
7,AGAGCATA,0.0815
8,TACGGAGA,0.0738
9,CTGGGGAA,0.0741
10,CTTACAGA,0.0668
11,ATTCCTCA,0.0739
12,AATTAGGA,0.0789
13,CAGACACC,0.0786
14,ATGTCGGG,0.0861
15,AGACTGGA,0.0692
16,GCCAAAGC,0.0687
17,GCTAATCC,0.0745
18,CAACTACA,0.076
19,ACAACTCC,0.0743
20,CCGCACCA,0.0786
21,TGCACACA,0.093
22,CCGAGGCG,0.0689
23,AATCAGAA,0.0794
24,AAACTGGG,0.0682
25,CACTCGGG,0.0673

row,Sequence,binding signal (normalized occupancy)
1,GCAGCCAC,0.0737
2,CCATCGGG,0.0711
3,CTCGCGCC,0.0694
4,ACCATAAA,0.0787
5,GCCTTGCC,0.0714
6,GACCACCC,0.0841
7,CACTACTG,0.0818
8,ACGATGAG,0.0821
9,CAGACGGC,0.0673
10,GAGAAAGC,0.0684
11,ATTAAATG,0.0815
12,CTGCCAAG,0.0757
13,CTAAAATA,0.0829
14,GGACGAAC,0.07
15,ATACGGAG,0.073
16,ATCTATAC,0.0819
17,ACTGGGGG,0.073
18,ACCAAACG,0.0712
19,CTGACATC,0.0791
20,AGTGCATG,0.0988
21,AGCTTCTA,0.0709
22,TGCCAGAA,0.0775
23,CGAAAACC,0.0763
24,GTCCTTAA,0.0744
25,CCATCGCG,0.0734

row,Sequence,binding signal (normalized occupancy)
1,ACAACAGC,0.0725
2,GATTAAAA,0.0743
3,AAATTGAG,0.0717
4,ACTTTTCC,0.0753
5,AATCAGCG,0.0745
6,CCACCGGG,0.0769
7,AGCGAGAG,0.0672
8,CTTCGAAC,0.0686
9,ACTATAGA,0.0769
10,AGCTTGAA,0.0674
11,GAGGTATC,0.0783
12,GTCAGGGA,0.0758
13,CTATAAAC,0.0789
14,ATAGTCTC,0.0756
15,AGTACCTC,0.0751
16,TCAGGTAA,0.0795
17,AGTAGGAC,0.0695
18,TAGGCTGA,0.0736
19,AGCTTGCA,0.0706
